± gives the standard deviation of the averaged measurements. Over roughly 33,000 sequences, “E-score (dimensionless, -0.5 to 0.5)” has its median near -0.049; the highest 2% begin near 0.37. Some of the results follow.
These sequences were tested on T1, PmTbr T-box DNA-binding domain (GST fusion) (assay: PBM E-score of 8-mer (E-score (dimensionless, -0.5 to 0.5)); Tbr is Tbrain of the sea star Patiria miniata (Pm) or the sea urchin Strongylocentrotus purpuratus (Sp); higher = stronger binding preference; most listed sequences are background and not binding sites). Details: the construct has about 5 more residues each side.
T1 sequence: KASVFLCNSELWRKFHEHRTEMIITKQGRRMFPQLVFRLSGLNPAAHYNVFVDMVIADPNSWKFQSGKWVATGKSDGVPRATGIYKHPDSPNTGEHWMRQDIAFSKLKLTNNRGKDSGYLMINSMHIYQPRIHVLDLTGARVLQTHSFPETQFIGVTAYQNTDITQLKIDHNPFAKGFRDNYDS
Outline: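 GST-fused Tbr T-box DNA-binding domains (the whole T-box plus about five flanking residues) were expressed in BL21 E. coli at 20 °C and purified by glutathione affinity chromatography. Universal Agilent oligonucleotide arrays were made double-stranded by primer extension, incubated with 200 nM protein in PBS (pH 7.5), then scanned and quantified. Every ungapped 8-mer was scored from probe intensities. The Universal PBM Analysis Suite gave each word an enrichment E-score, averaged over duplicate arrays.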

Sequence	PBM E-score of 8-mer
ATTCGTCC	-0.232 ± 0.077
ATATACGA	-0.298 ± 0.059
ATAGCGAC	0.212 ± 0.026
ACATGTCT	0.117 ± 0.018
AAAGTGAG	0.219 ± 0.048
AAGCAACG	-0.114 ± 0.14
ATGACTGA	-0.0983 ± 0.02
GAACCGCA	-0.0903 ± 0.015
AACCTAGA	-0.0413 ± 0.052
AATGCTAC	-0.183 ± 0.068
CTAGTGGA	-0.0818 ± 0.033
GTCTCTTA	-0.394 ± 0.036
CGCATTCA	0.0428 ± 0.077
CCGTTCTA	-0.0987 ± 0.064
CCGCAACA	0.0931 ± 0.039
CGCATCAG	-0.0358 ± 0.048
ACGGGTCG	-0.00772 ± 0.094
ATATCACC	0.364 ± 0.013
CGCGCCAA	0.3046 ± 0.001
TGAAGGAA	-0.178 ± 0.0066
ATTTAATG	-0.142 ± 0.018
ACGAAGCT	-0.143 ± 0.014
AGAGCCGC	0.0691 ± 0.026
ATGTAGCC	-0.237 ± 0.027
ACATTGGA	-0.0536 ± 0.027

Sequence	PBM E-score of 8-mer
CCGGTTAC	-0.0412 ± 0.0065
ATCAACCA	-0.067 ± 0.053
CCGAGCCG	-0.165 ± 0.025
ATGATCAA	-0.127 ± 0.051
GGTCCTAC	-0.293 ± 0.07
GCTGATCA	0.0814 ± 0.046
TATTGAAA	-0.151 ± 0.11
ATTCTTGA	-0.128 ± 0.041
ATTGCCCG	-0.14 ± 0.026
AGCGCTGA	0.111 ± 0.018
CATGGCAG	-0.00061 ± 0.0062
GATTCGTA	-0.0701 ± 0.0046
AACAACCC	0.164 ± 0.015
CTGTCCTA	-0.159 ± 0.026
CATCGAAG	-0.0852 ± 0.045
AATTCTGG	-0.141 ± 0.0065
ATTCGTGC	0.0479 ± 0.022
CGATTGCA	-0.0105 ± 0.0098
ACTCTAAG	-0.0809 ± 0.026
CCCCTTAG	-0.195 ± 0.0038
ACTAGTCG	0.06899 ± 0.00056
AATGTTGA	-0.0399 ± 0.032
TGATAGAA	-0.0288 ± 0.044
GATTCTTA	-0.226 ± 0.087
AAAGGCTT	-0.147 ± 0.1

Sequence	PBM E-score of 8-mer
AAGTGCTG	0.283 ± 0.0071
CGCTATCC	0.1683 ± 0.0014
AGGTCTAC	-0.22 ± 0.033
ACTCATTC	0.0418 ± 0.053
GTATATTA	-0.0593 ± 0.012
TCTCCAAA	-0.112 ± 0.014
GCACTCGA	0.0351 ± 0.056
ACTTATTA	0.0517 ± 0.051
ACCAGTTC	-0.0453 ± 0.013
CATAAGCG	0.0288 ± 0.0076
CGAATAGA	0.121 ± 0.017
CCTTGGCG	0.246 ± 0.027
GAGCTTAA	-0.18 ± 0.014
CTTCCACC	-0.0494 ± 0.032
CCGGTACG	-0.087 ± 0.038
AGGAGTAA	-0.025 ± 0.055
AAGTTGGC	0.154 ± 0.029
ATCAGGGA	-0.235 ± 0.0044
GCTGTTCC	-0.03 ± 0.039
ATGCTATG	0.0116 ± 0.0066
CCGGAGAA	-0.00469 ± 0.1
ATCTAGTA	-0.0582 ± 0.021
GTCCGTAA	-0.254 ± 0.076
GCCATCCA	-0.0707 ± 0.014
CGTGTGAC	0.4054 ± 0.0011

Sequence	PBM E-score of 8-mer
CCTAGGCC	-0.0558 ± 0.021
AGATTCAG	-0.217 ± 0.043
CAAAGGGG	-0.0294 ± 0.05
ACTCTCCT	-0.262 ± 0.035
AGCCAGCG	-0.149 ± 0.095
CGGAGTGA	0.112 ± 0.029
ACTCTCTA	-0.066 ± 0.05
AATGTCAG	0.0135 ± 0.012
CAAAGATC	-0.1 ± 0.012
GCCGACGC	0.0966 ± 0.04
ACCGGCAA	0.0805 ± 0.038
GACGACAC	0.305 ± 0.034
AACAGCCG	-0.116 ± 0.026
CAGATGAA	-0.144 ± 0.096
ACAGCATA	-0.0777 ± 0.051
AGTTTACC	-0.0737 ± 0.072
GCAGCGCA	-0.177 ± 0.044
CTTTATCA	0.182 ± 0.082
CACAACTC	0.202 ± 0.012
ATGCATCA	0.12 ± 0.049
AAACGCCC	-0.202 ± 0.037
GCATCTCA	0.0545 ± 0.013
CAAACAAG	-0.0714 ± 0.069
ATACAAGG	0.0196 ± 0.015
GGAGACAC	0.142 ± 0.084

Sequence	PBM E-score of 8-mer
CACTATAC	0.132 ± 0.073
AATGTGTA	0.226 ± 0.029
AGGGACGG	-0.213 ± 0.022
CGCCGCGC	0.1696 ± 0.00036
GAGTGAAC	0.133 ± 0.048
TATCGCAA	0.143 ± 0.067
CAGAAGCC	-0.2782 ± 0.0009
ACTTAACA	0.327 ± 0.036
AGCTCACG	0.124 ± 0.037
ACAAAGCA	0.0625 ± 0.013
CGCTACAC	0.129 ± 0.045
ATACCTGC	0.0129 ± 0.047
CGAGACAA	-0.054 ± 0.007
ATCGTAAT	-0.0745 ± 0.038
AGCTAATG	-0.129 ± 0.0072
CCATTCAA	-0.184 ± 0.041
ATGTTTTC	-0.0701 ± 0.046
ATCAAATA	-0.114 ± 0.028
GATGTGCA	0.107 ± 0.021
CAAGAACG	-0.299 ± 0.037
ATGGTTGC	-0.167 ± 0.062
ATGACGTA	-0.1684 ± 0.00013
ATCCTAAT	-0.0653 ± 0.0047
ACCCAGCA	-0.0317 ± 0.034
ATCATCTA	0.0571 ± 0.026

Sequence	PBM E-score of 8-mer
CATTGGCG	0.167 ± 0.027
ATAGTGAC	0.17 ± 0.015
CCTTGTTC	-0.00419 ± 0.065
CACCCAGA	0.0663 ± 0.087
GCAGCGAA	0.0151 ± 0.0073
AGGAACAG	-0.0629 ± 0.0026
CTACAGAC	0.0843 ± 0.022
ATTCTAGG	-0.0821 ± 0.035
ATCTGAGG	-0.0294 ± 0.079
CGACCCAA	0.0392 ± 0.012
GAATTGTC	0.184 ± 0.0043
CTCCCGCC	0.0402 ± 0.087
AGCAGAGG	-0.202 ± 0.0099
ACGTTCTC	0.0059 ± 0.18
CGCTTCAC	0.188 ± 0.016
GGGGAACA	-0.156 ± 0.032
ATACCCGA	-0.117 ± 0.044
ACTCTTGC	-0.0506 ± 0.044
AGAGTAGG	-0.204 ± 0.032
AGGGTCCA	-0.278 ± 0.013
AGTCAAAT	-0.189 ± 0.044
ATGATAGG	-0.00677 ± 0.042
GCATACGC	-0.152 ± 0.036
AGCAGTAA	-0.102 ± 0.021
GTGGTTTA	-0.108 ± 0.044

Sequence	PBM E-score of 8-mer
CAGAGCGA	-0.17 ± 0.12
TTATTCAA	-0.199 ± 0.061
AGGGGCGA	0.0686 ± 0.035
AACCCTCG	-0.126 ± 0.02
CCTCGCAA	0.118 ± 0.0037
GCGCGCCA	0.133 ± 0.02
ACATCTAA	-0.044 ± 0.015
CTCCGGAG	-0.167 ± 0.095
GACTTAGA	-0.0924 ± 0.041
ACATTGAG	-0.142 ± 0.027
TTACATAA	-0.104 ± 0.022
CACCCTTC	0.259 ± 0.01
TCCGCGGA	0.08 ± 0.13
CAACAAAA	0.0165 ± 0.026
AGGAAACG	-0.0501 ± 0.002
TGAGGCAA	-0.118 ± 0.034
CCCGTAAC	0.0424 ± 0.058
ACTCTATG	-0.105 ± 0.027
ACGGTCAG	-0.0199 ± 0.045
ACTGTGAA	0.378 ± 0.0086
CACTTGCA	0.349 ± 0.0093
CAAGGCGA	0.15 ± 0.035

Source: the supplement of paper PMC4166925
